# In US20260200947A1, “FUSED CYCLIC COMPOUNDS AND USE THEREOF” (Jacobio Pharmaceuticals Co., Ltd., priority 2022, published 2026):
# Test system: AGS cells (K-Ras G12D)
row,SMILES,IC50 [nM]
1,C#Cc1c(F)ccc2cc(N)cc(-c3nc4c5c(nc(OC[C@@]67CCCN6C[C@H](F)C7)nc5c3F)N3CCCCC(C#N)C3N4C)c12 (stereo partly drawn) [Compound 101],128

# Test system: Capan-2 cells (K-Ras G12V)
row,SMILES,IC50 [nM]
1,C#Cc1c(F)ccc2cc(N)cc(-c3nc4c5c(nc(OCC6(CN(C)C)CC6(F)F)nc5c3F)N3CCCOC[C@H]3N4C)c12 (stereo partly drawn) [Compound 4],3.85
2,C#Cc1c(F)ccc2cc(N)cc(-c3nc4c5c(nc(OCC6(CN7CCOCC7)CC6)nc5c3F)N3CCCOC[C@H]3N4C)c12 [Compound 74],2.24
3,CN1c2nc(-c3ccc(F)c4sc(N)c(C#N)c34)c(F)c3nc(OC[C@@]45CCCN4C[C@H](F)C5)nc(c23)N2CCCOC[C@@H]12 [Compound 75],23.4
4,C#Cc1c(F)ccc2cc(N)cc(-c3nc4c5c(nc(OCC6(CN7CC[C@@H](F)C7)CC6)nc5c3F)N3CCCOCC3N4C)c12 (stereo partly drawn) [Compound 82],19.9
5,[2H][C@]1(F)CCCCN2c3nc(OC[C@@]45CCCN4C[C@H](F)C5)nc4c(F)c(-c5cc(N)cc6ccc(F)c(C#C)c56)nc(c34)N(C)[C@@H]21 [Compound 95],1.38
6,C#Cc1c(F)ccc2cc(N)cc(-c3nc4c5c(nc(OC[C@@]67CCCN6C[C@H](F)C7)nc5c3F)N3C(C5CCCO5)CCOCC3N4C)c12 (stereo partly drawn) [Compound 100],5.87
7,C#Cc1c(F)ccc2cc(N)cc(-c3nc4c5c(nc(OC[C@@]67CCCN6C[C@H](F)C7)nc5c3F)N3CCCCC(C#N)C3N4C)c12 (stereo partly drawn) [Compound 101],25

# Test system: AGS cells (K-Ras G12D)
# Remark: another data set of the same source
row,SMILES,IC50 [nM]
1,C#Cc1c(F)ccc2cc(N)cc(-c3nc4c5c(nc(OCC6(CN(C)C)CC6(F)F)nc5c3F)N3CCCOC[C@H]3N4C)c12 (stereo partly drawn) [Compound 4],11.2
2,C#Cc1c(F)ccc2cc(N)cc(-c3nc4c5c(nc(OCC6(CN7CCOCC7)CC6)nc5c3F)N3CCCOC[C@H]3N4C)c12 [Compound 74],16.7
3,CN1c2nc(-c3ccc(F)c4sc(N)c(C#N)c34)c(F)c3nc(OC[C@@]45CCCN4C[C@H](F)C5)nc(c23)N2CCCOC[C@@H]12 [Compound 75],105
4,C#Cc1c(F)ccc2cc(N)cc(-c3nc4c5c(nc(OCC6(CN7CC[C@@H](F)C7)CC6)nc5c3F)N3CCCOCC3N4C)c12 (stereo partly drawn) [Compound 82],86.9
5,[2H][C@]1(F)CCCCN2c3nc(OC[C@@]45CCCN4C[C@H](F)C5)nc4c(F)c(-c5cc(N)cc6ccc(F)c(C#C)c56)nc(c34)N(C)[C@@H]21 [Compound 95],0.649
6,C#Cc1c(F)ccc2cc(N)cc(-c3nc4c5c(nc(OC[C@@]67CCCN6C[C@H](F)C7)nc5c3F)N3C(C5CCCO5)CCOCC3N4C)c12 (stereo partly drawn) [Compound 100],51.2
7,C#Cc1c(F)ccc2cc(N)cc(-c3nc4c5c(nc(OC[C@@]67CCCN6C[C@H](F)C7)nc5c3F)N3CCCCC(C#N)C3N4C)c12 (stereo partly drawn) [Compound 101],48.3
